Assay results from the supplement of paper PMC12217912.
The list shows a part of the results. The full chains were built here from the parent and the listed change. Values near 0.05 are background.

B1: TEV protease; numbered along this chain (parent)
chain: MGESLFKGPRDYNPISSSICHLTNESDGHTTSLYGIGFGPFIITNKHLFRRNNGTLVVQSLHGVFKVKDTTTLQQHLVDGRDMIIIRMPKDFPPFPQKLKFREPQREERICLVTTNFQTKSMSSMVSDTSCTFPSGDGIFWKHWIQTKDGQCGSPLVSTRDGFIVGIHSASNFTNTNNYFTSVPKNFMELLTNQEAQQWVSGWRLNADSVLWGGHKVFMVKPEEPFQPVKEATQL

Variants of: B1
Assay: raw area under fraction-flipped curve 0-4 h after induction (AUC4h, not background-subtracted), DNA-recorder readout of cleavage of the substrate (dimensionless); higher = more cleavage of the substrate by the protease variant
Conditions: temperature: 34 °C; time window: 0-4 h after rhamnose induction
Description: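 In vivo DNA recorder in E. coli TOP10(DE3) ΔrhaA at 34 °C. Each TEVp single-site mutant (parent TEVp 0) is paired with a single-site variant of the 7-mer TEVs (canonical ENLYFQ|S). The substrate sits between flexible linkers in a Bxb1-sfGFP-TEVs-SsrA fusion, so cleavage stabilises Bxb1 and speeds flipping of a recombination array, read by NGS. The value is the raw area under the fraction-flipped curve over 0-4 h after rhamnose induction (AUC4h), with ≥20 reads per time point. It is not background-subtracted; inactive controls average about 0.047.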
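Note: Bxb1 expression induced with 0.2% (w/v) L-rhamnose at OD600 near 0.5, cultures sampled hourly, flipped fraction per protease–substrate barcode pair counted by paired-end Illumina sequencing.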

Row | Variant | area with substrate ENLAFQS | area with substrate ENLMFQS | area with substrate ENLNFQS | area with substrate ENLRFQS | area with substrate ENLWFQS | area with substrate ENLCFQS | area with substrate ENLDFQS | area with substrate ENLFFQS | area with substrate ENLHFQS | area with substrate ENLKFQS | area with substrate ENLLFQS | area with substrate ENLQFQS | area with substrate ENLSFQS | area with substrate ENLPFQS | area with substrate ENLTFQS | area with substrate ENLEFQS | area with substrate ENLGFQS | area with substrate ENLVFQS | area with substrate ENLIFQS
1 | MGESLFKGPRDYNPISSSICHLTNESDGHTTSLYGIGFGPFIITNKHLFRRNNGTLVVQSLHGVFKVKDTTTLQQHLVDGRDMIIIRMPKDFPPFPQKLKFREPQREERICLVTTNFQTKSMSSMVSDTSCTFPSGDGIFWKHWIQTKDGQCGSPLVSTRDGFIVGIHSASNFTNTNNYFTSVPKNFMELLTNQEAQQWVSGWRLNADSVHWGGHKVFMVKPEEPFQPVKEATQL [L211H] | 0.0636 | 0.0694 | 0.0688 | 0.073 | 0.0616 |  |  |  |  |  |  |  |  |  |  |  |  |  | 
2 | MGESLFKGPRDYNPISSSICHLTNESDGHTTSLYGIGFGPFIITNKHLFRRNNGTLVVQSLHGVFKVKDTTTLQQHLVDGRDMIIIRMPKDFPPFPQKLKFREPQREERICLVTTNFQTKSMSSMVSDTSCTFPSGDGIFWKHWIQTKDGQCGSPLVSTRDGFIVGIHSASNFTNTNNYFTSVPKNFMELLTNQEAQQWVSGWRLNADSVLQGGHKVFMVKPEEPFQPVKEATQL [W212Q] | 0.0576 | 0.0042 | 0.0597 | 0.0727 | 0.0693 | 0.0599 | 0.0795 | 0.0832 | 0.0635 | 0.0927 | 0.0691 | 0.0773 | 0.0706 |  |  |  |  |  | 
3 | MGESLFKGPRDYNPISSSICHLTNESDGHTTSLYGIGFGPFIITNKHLFRRNNGTLVVQSLHGVFKVKDTTTLQQHLVDGRDMIIIRMPKDFPPFPQKLKFREPQREERICLVTTNFQTKSMSSMVSDTSCTFPSGDGIFWKHWIQTKDGQCGSPLVSTRDGFIVGIHSASNFTNTNNYFTSVPKNFMELLTNQEAQQWVSGWRLNADSVLWGGHKDFMVKPEEPFQPVKEATQL [V217D] | 0.0687 |  | 0.0715 |  | 0.0607 |  | 0.0682 | 0.0666 | 0.0577 | 0.0568 |  |  | 0.066 | 0.0652 | 0.062 |  |  |  | 
4 | MGESLFKGPRDYNPISSSICHLTNESDGHTTSLYGIGFGPFIITNKHLFRRNNGTLVVQSLHGVFKVKDTTTLQQHLVDGRDMIIIRMPKDFPPFPQKLKFREPQREERICLVTTNFQTKSMSSMVSDTSCTFPSGDGIFWKHWIQTKDGQCGSPLVSTRDGFIVGIHSASNFTNTNNYFTSVPKNFMELLTNQEAQQWVSGWRLNADSVLWGGHKVFGVKPEEPFQPVKEATQL [M219G] | 0.0652 |  | 0.0605 |  |  |  | 0.0639 | 0.0633 | 0.0599 | 0.0661 | 0.0529 | 0.0465 | 0.056 |  |  | 0.067 | 0.0879 | 0.0595 | 
5 | MGESLFKGPRDYNPISSSICHLTNESDGHTTSLYGIGFGPFIITNKHLFRRNNGTLVVQSLHGVFKVKDTTTLQQHLVDGRDMIIIRMPKDFPPFPQKLKFREPQREERICLVTTNFQTKSMSSMVSDTSCTFPSGDGIFWKHWIQTKDGQCGSPLVSTRDGFIVGIHSASNFTNTNNYFTSVPKNFMELLTNQEAQQWVSGWRLNADSVLWGGHKVFMDKPEEPFQPVKEATQL [V220D] | 0.0541 |  | 0.0562 | 0.0684 |  | 0.0785 | 0.056 | 0.127 | 0.0507 | 0.0771 |  | 0.0695 | 0.0837 | 0.0582 |  | 0.0641 | 0.0747 | 0.0698 | 0.0742
6 | MGESLFKGPRDYNPISSSICHLTNESDGHTTSLYGIGFGPFIITNKHLFRRNNGTLVVQSLHGVFKVKDTTTLQQHLVDGRDMIIIRMPKDFPPFPQKLKFREPQREERICLVTTNFQTKSMSSMVSDTSCTFPSGDGIFWKHWIQTKDGQCGSPLVSTRDGFIVGIHSASNFTNTNNYFTSVPKNFMELLTNQEAQQWVSGWRLNADSVLWGGHKVFMNKPEEPFQPVKEATQL [V220N] | 0.0658 | 0.0659 | 0.0706 |  | 0.0772 | 0.0776 | 0.0469 | 0.083 | 0.0634 | 0.102 |  |  | 0.065 | 0.0405 |  | 0.0611 |  |  | 
7 | MGESLFKGPRDYNPISSSICHLTNESDGHTTSLYGIGFGPFIITNKHLFRRNNGTLVVQSLHGVFKVKDTTTLQQHLVDGRDMIIIRMPKDFPPFPQKLKFREPQREERICLVTTNFQTKSMSSMVSDTSCTFPSGDGIFWKHWIQTKDGQCGSPLVSTRDGFIVGIHSASNFTNTNNYFTSVPKNFMELLTNQEAQQWVSGWRLNADSVLWGGHKVFMVVPEEPFQPVKEATQL [K221V] | 0.0663 |  |  | 0.0703 |  |  | 0.0667 |  | 0.0689 | 0.0562 | 0.0373 |  | 0.0777 | 0.0568 | 0.05 |  |  |  | 0.0946
8 | MGESLFKGPRDYNPISSSICHLTNESDGHTTSLYGIGFGPFIITNKHLFRRNNGTLVVQSLHGVFKVKDTTTLQQHLVDGRDMIIIRMPKDFPPFPQKLKFREPQREERICLVTTNFQTKSMSSMVSDTSCTFPSGDGIFWKHWIQTKDGQCGSPLVSTRDGFIVGIHSASNFTNTNNYFTSVPKNFMELLTNQEAQQWVSGWRLNADSVLWGGHKVFMVKEEEPFQPVKEATQL [P222E] | 0.0571 | 0.07 | 0.062 | 0.0605 |  |  | 0.0645 | 0.0707 | 0.068 | 0.0808 |  |  | 0.0551 | 0.0589 |  | 0.068 |  | 0.0688 | 0.0715
9 | MGESLFKGPRDYNPISSSICHLTNESDGHTTSLYGIGFGPFIITNKHLFRRNNGTLVVQSLHGVFKVKDTTTLQQHLVDGRDMIIIRMPKDFPPFPQKLKFREPQREERICLVTTNFQTKSMSSMVSDTSCTFPSGDGIFWKHWIQTKDGQCGSPLVSTRDGFIVGIHSASNFTNTNNYFTSVPKNFMELLTNQEAQQWVSGWRLNADSVLWGGHKVFMVKPHEPFQPVKEATQL [E223H] | 0.0783 |  | 0.0558 | 0.0773 |  | 0.0958 | 0.0659 | 0.0651 | 0.0764 |  |  | 0.0778 | 0.0759 |  |  | 0.05 | 0.0715 | 0.089 | 
10 | MGESLFKGPRDYNPISSSICHLTNESDGHTTSLYGIGFGPFIITNKHLFRRNNGTLVVQSLHGVFKVKDTTTLQQHLVDGRDMIIIRMPKDFPPFPQKLKFREPQREERICLVTTNFQTKSMSSMVSDTSCTFPSGDGIFWKHWIQTKDGQCGSPLVSTRDGFIVGIHSASNFTNTNNYFTSVPKNFMELLTNQEAQQWVSGWRLNADSVLWGGHKVFMVKPEEAFQPVKEATQL [P225A] | 0.0345 | 0.0683 | 0.0644 | 0.0875 |  | 0.0824 | 0.0617 | 0.0837 | 0.064 | 0.0645 | 0.0631 | 0.0667 | 0.0654 | 0.0725 |  |  |  |  | 0.0728
